Results published in PubChem BioAssay AID1346428 (National Center for Advancing Translational Sciences (NCATS), 2018).
About 1,200 (2.5%) of roughly 48,000 compounds were called active. About 2% were inconclusive and are not listed.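 How the source made its calls: active means activation of at least 60% and not above a set upper limit (about 1 call in 100 departs from these limits); inconclusive means activation of 40% to 60%, or above that upper limit; inactive means activation under 40%.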 Some of the results follow.
Further: 0% is about no effect.

These molecules were tested against Probable G-protein coupled receptor 32 (Homo sapiens) (UniProt O75388) (assay: qHTS for Agonists of Human Resolvin D1 Receptor DRV1). Conditions: CHO-K1 GPR32 beta-arrestin PathHunter luminescence, 90 min; at 76.9 µM; stronger effect = higher value; zero percent set by DMSO-only wells.
Sequence of UniProt O75388 (O75388 whole entry, looked up): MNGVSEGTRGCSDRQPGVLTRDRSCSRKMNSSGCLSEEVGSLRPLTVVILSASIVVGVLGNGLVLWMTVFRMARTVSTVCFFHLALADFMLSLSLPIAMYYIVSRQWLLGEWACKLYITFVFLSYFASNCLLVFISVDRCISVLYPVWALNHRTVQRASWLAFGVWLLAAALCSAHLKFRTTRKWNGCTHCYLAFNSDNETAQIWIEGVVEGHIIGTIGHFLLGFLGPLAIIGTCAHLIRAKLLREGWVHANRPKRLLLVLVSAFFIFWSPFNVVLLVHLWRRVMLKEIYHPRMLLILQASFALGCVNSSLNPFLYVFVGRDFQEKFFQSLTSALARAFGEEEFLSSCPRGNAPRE
How it was run: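 Engineered CHO-K1 line co-expressing GPR32-ProLink and EA-beta-arrestin. Compound treatment lasted 90 min at 37 °C. Luminescence was recorded after 1 h with substrate at ambient temperature, relative to DMSO basal wells.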
`COc1ccc(S(=O)(=O)Nc2cccc(-c3ccc(N4CCCCCC4)nn3)c2)cc1` was tested, and the activation was inactive: 0.403%.
In the case of `COc1ccc2c(c1)-c1nc(NC(=O)c3ccccc3F)sc1CC2`, the activation is reported as inactive: -24.5%.
In the case of `CCN(CC)C(=O)c1sc2c(c1C)c(=O)n(-c1ccc(C)c(C)c1)c(=O)n2Cc1cc(=O)n2c(C)cccc2n1`, the activation is reported as inactive: -6.62%.
With `COc1ccc(CNC(=O)CSc2ncc3c(n2)-c2cc(Cl)ccc2N(Cc2ccccc2)S3(=O)=O)cc1OC` the activation was inactive: -5.47%.
For `Cc1nnc(SCc2nc(-c3ccc(Cl)cc3)no2)n1-c1ccc(F)cc1`, the activation was inactive: 6.98%.
With `COc1ccccc1NC(=O)Cn1c(=O)n(CCc2ccccc2)c(=O)c2c3c(sc21)CN(C(C)=O)CC3` the activation was inactive: -6.47%.
For `Cc1ccc(Cn2cc(/C=C(/C#N)C(=O)Nc3cccc(Cl)c3)c3ccccc32)cc1`, the activation was inactive: -3.35%.
In the case of `O=C(c1ccccc1)n1nc(-c2ccco2)nc1NCc1cccs1`, the activation is reported as inactive: 18.1%.
For `COc1cc2ccccc2cc1C(=O)Nc1cc(-c2nc3ccccc3o2)ccc1C`, the activation was inactive: 8.19%.
With `CCC(=O)OCc1cnc(C)c2oc(=O)c(C(=O)Nc3ccccc3C(F)(F)F)cc12` the activation was inactive: -12.1%.
In the case of `Cc1ccc(S(=O)(=O)N2CCc3cc(C(=O)Nc4ccc(C)c(C)c4)ccc32)cc1`, the activation is reported as inactive: 6.41%.
With `O=c1cc(-c2ccccc2)nc2cc(-c3ccc(F)cc3)[nH]n12` the activation was inactive: -1.45%.
For `CCOC(=O)Cn1c(=O)n(CC2CCCO2)c2nc(-c3ccccc3)nc(C(N)=O)c21` (stereo not given), the activation was inactive: -0.143%.
In the case of `COc1ccc(C(=O)Nc2ccc(N(C)Cc3ccccc3)c(C(=O)O)c2)cc1`, the activation is reported as inactive: -15.6%.
With `O=C(Nc1ccc(C(=O)O)c(O)c1)c1ccccc1` the activation was inactive: 3.65%.
In the case of `CC(C)NC(=O)N1[C@H](c2cccs2)[C@@H](C)C(=O)[C@@H](C)[C@@H]1c1cccs1`, the activation is reported as inactive: -12.1%.
In the case of `O=C(CN1CCCN(Cc2ccccc2F)S1(=O)=O)Nc1ccc(F)c(Cl)c1`, the activation is reported as inactive: 5.4%.
In the case of `Cc1cc(C)cc(NC(=O)N2CCC(CN3CCOCC3)CC2)c1`, the activation is reported as inactive: -9.13%.
In the case of `CCOC(=O)C1=C(CN2CCN(c3ccccc3OC)CC2)NC(=O)NC1c1ccccc1` (stereo not given), the activation is reported as inactive: 18.1%.
In the case of `COCc1cc(C)nc2c1C(=O)NC(c1ccc(F)cc1)N2Cc1ccccc1` (stereo not given), the activation is reported as inactive: -31.8%.
In the case of `COc1ccc(-c2nnc(SCC(=O)NCCC(C)C)nc2-c2ccc(OC)c(OC)c2)cc1OC`, the activation is reported as inactive: -15.3%.
For `Cc1ccc(CNCc2ccccc2Cl)s1`, the activation was inactive: 16.9%.
For `CCCCNC(=O)c1ccc2c(=O)n(Cc3ccc(OC)cc3)c(=O)[nH]c2c1`, the activation was inactive: -5.75%.
In the case of `CCc1cccc(C)c1NC(=O)Cn1nc(C)n2cccc2c1=O`, the activation is reported as inactive: -19.8%.
With `COC(=O)c1cc2oc(C)cc2n1CC(=O)Nc1ccc(C(C)C)cc1` the activation was inactive: -30.9%.
`N#Cc1c(C(F)(F)F)cc(-c2cccs2)nc1SCc1ccc(F)cc1` was tested, and the activation was inactive: -3.52%.
With `CCCCOC(=O)c1ccc(N)cc1` the activation was inactive: -6.18%.
With `CCOC(=O)C(C)Sc1ccc2nnc(CCNS(=O)(=O)c3ccc(C)cc3)n2n1` (stereo not given) the activation was inactive: -8.17%.
With `CC1=C(C(=O)NCc2cccc(F)c2)C2(CCCCC2)OC1=O` the activation was inactive: 8.62%.
With `CC1Cc2ccccc2N1C(=O)CSc1nc2ccc(NC(=O)COc3ccccc3)cc2s1` (stereo not given) the activation was inactive: 5.9%.
For `Cc1ccccc1CSc1cn(CC(=O)N2CCCCC2)c2ccccc12`, the activation was inactive: -26.7%.
`CCOC(=O)c1c(C)oc2nc(C)nc(NCC3CCN(Cc4ccc(C)cc4)CC3)c12` was tested, and the activation was inactive: -9.94%.
`O=C(Nc1cccc(C(F)(F)F)c1)c1cnn(-c2cccc(F)c2)c1C1CCNCC1` was tested, and the activation was inactive: -8.37%.
With `CC(C)(C)c1ccc(C(=O)NCCc2csc(-c3ccc(Cl)cc3)n2)cc1` the activation was inactive: -12.4%.
For `Cc1ccc(NC(=O)CCS(=O)(=O)c2ccc(Br)s2)c(Br)c1`, the activation was active: 70.9%.
`CCOc1ccc(CCNC(=O)c2oc(=O)c3ccccc3c2-c2ccc(C)cc2)cc1OCC` was tested, and the activation was inactive: -4.93%.
For `Cc1ccc(Nc2c(-c3ccc(C)s3)nc3ccccn23)cc1`, the activation was inactive: 11%.
For `CCCCCC1Nc2cc(C(F)(F)F)c(S(N)(=O)=O)cc2S(=O)(=O)N1` (stereo not given), the activation was inactive: 6.72%.
In the case of `COC(=O)c1cccc(NC2=NS(=O)(=O)c3ccccc32)c1`, the activation is reported as inactive: -13.6%.
With `Cc1cc(Cl)ccc1NC(=O)Cc1ccc(NC(=O)N2CCCCc3ccccc32)cc1` the activation was inactive: -8.01%.
`COc1ccc(C)cc1NC(=O)C1CCN(S(=O)(=O)c2cc(Br)cc3c2N(C(C)=O)CC3)CC1` was tested, and the activation was inactive: -12.6%.
For `CCn1c(SCc2c(F)cccc2Cl)nc(=O)c2c(C(=O)OC)cc(C3CC3)nc21`, the activation was inactive: 1.23%.
With `O=C(c1ccccc1Br)N(Cc1ccco1)Cc1ccco1` the activation was inactive: -16.3%.
`CCc1ccc(C(=O)c2cn(CC(=O)Nc3cccc(OC)c3)c3cc4c(cc3c2=O)OCO4)cc1` was tested, and the activation was inactive: 24.4%.
`COc1ccc(C)c2sc(N3CCN(C(=O)c4cccc(F)c4)CC3)nc12` was tested, and the activation was inactive: -0.533%.
For `CCOc1ccccc1NC(=O)N(Cc1ccc(C)o1)C1CCN(C(C)=O)CC1`, the activation was inactive: -12.6%.
With `Cc1ccc(-c2cc3ncc4c(n3n2)-c2cc(F)ccc2OC4)cc1` the activation was inactive: -5.23%.
`CCOC(=O)CNC(=O)N1CCCN(S(=O)(=O)c2ccc3c(ccn3CC)c2)CC1` was tested, and the activation was inactive: -4.82%.
`CCc1nn2c(=O)cc(COC(=O)c3ccccc3)nc2s1` was tested, and the activation was inactive: -50.3%.
`COc1ccc(C)cc1NC(=O)C1CCCN(c2ncnc3onc(C)c23)C1` (stereo not given) was tested, and the activation was inactive: 6.45%.
With `CCOc1ccccc1NC(=O)CN(C)S(=O)(=O)c1ccc(C(=O)N2CCOCC2)s1` the activation was inactive: 5.49%.
`O=c1c(=O)n(-c2ccc(F)c(F)c2)ccn1Cc1ccc(F)cc1Cl` was tested, and the activation was inactive: -12%.
`CCOc1ccc(NC(=O)N2CCN(c3nnc(C)c4c(C)n(-c5ccccc5)nc34)CC2)cc1` was tested, and the activation was inactive: -11.3%.
For `CN(C)/N=N/c1nc[nH]c1C(N)=O`, the activation was inactive: 1.02%.
With `CCOC(=O)C1=C(CS(=O)(=O)c2ccc(F)c(C)c2)NC(=O)NC1c1ccccc1OC` (stereo not given) the activation was inactive: -1.39%.
